According to PubChem BioAssay AID1768 (National Center for Advancing Translational Sciences (NCATS), 2009):
Values joined by “and” are separate entries in the source; they are usually repeats but may differ in a detail not shown here. Equal entries are not always repeated. The whole screen tested about 270,000 compounds, of which about 620 (0.23%) were called active. This list was built around the results that the source calls inconclusive (neither active nor inactive); the mix of calls is not that of the screen. Calls come from the whole dose curve; as a rule, active = well fitted inhibition curve with a large enough effect in the polarisation, with a control signal flat (not every such curve was filed as active); inconclusive = small, poorly fitted or top-dose-only effect, or effect the other way, or a change in a side signal; inactive = no such curve, though single readings can be large or run the other way; the % refers to the polarisation. Where the call is inconclusive, the potency comes from a doubtful curve fit. A note “side channel” means that the fit belongs to a control or component signal, not to the main read-out.

What follows are compounds tested against Menin (Homo sapiens) (UniProt O00255) (assay: qHTS Assay for Inhibitors Targeting the Menin-MLL Interaction in MLL Related Leukemias: Competition With Texas Red Labeled MLL-derived Mutant Peptide). Details: fluorescence polarization; series mostly up to 61.6 µM.
Chain of UniProt O00255 (O00255 whole entry, looked up, the tested form may be a part): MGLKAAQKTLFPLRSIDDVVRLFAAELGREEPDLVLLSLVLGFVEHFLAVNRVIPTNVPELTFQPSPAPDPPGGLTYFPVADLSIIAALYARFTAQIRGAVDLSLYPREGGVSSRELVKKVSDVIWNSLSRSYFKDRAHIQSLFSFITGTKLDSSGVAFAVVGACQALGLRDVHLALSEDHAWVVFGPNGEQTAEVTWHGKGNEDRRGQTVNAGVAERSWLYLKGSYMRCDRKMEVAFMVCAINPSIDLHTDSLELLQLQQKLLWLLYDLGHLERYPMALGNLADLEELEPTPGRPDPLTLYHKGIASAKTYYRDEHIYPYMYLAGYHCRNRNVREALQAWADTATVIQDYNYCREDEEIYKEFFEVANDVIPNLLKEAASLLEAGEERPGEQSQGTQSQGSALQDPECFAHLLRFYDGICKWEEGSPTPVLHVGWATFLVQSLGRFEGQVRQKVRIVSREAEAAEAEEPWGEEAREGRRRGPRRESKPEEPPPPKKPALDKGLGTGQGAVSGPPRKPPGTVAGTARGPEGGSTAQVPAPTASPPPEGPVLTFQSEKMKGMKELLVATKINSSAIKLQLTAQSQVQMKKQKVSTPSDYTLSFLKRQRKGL
Source text: qHTS Assay for Inhibitors Targeting the Menin-MLL Interaction in MLL Related Leukemias NIH Chemical Genomics Center [NCGC] NIH Molecular Libraries Probe Centers Network [MLPCN] MLPCN Grant: MH084875-01A1 Assay Submitter (PI): Jolanta Grembecka, Tomasz Cierpicki, University of Virginia Translocations of the MLL (Mixed Lineage Leukemia) gene are frequently found in human leukemias affecting both children and adults. Fusion of MLL to one of more than 60 genes results in generation of oncogenic proteins upregulating Hox genes, which are vital to blood cell development. Patients harboring fusion of the MLL gene suffer from aggressive leukemias and respond poorly to available therapies. All of the oncogenic fusion proteins have a preserved N-terminal fragment of MLL that has been identified to interact with menin. It has been recently discovered that association with menin is critical to the leukemogenic activity of the MLL fusion oncoproteins. Selective targeting of the menin-MLL interaction could provide an attractive therapeutic approach to develop novel drugs for MLL-related leukemias. Small molecules blocking the menin-MLL interaction should reverse the oncogenic potential of MLL fusion proteins. We have developed and optimized a fluorescence polarization-based assay for the identification of Menin-MLL inhibitors. The assay was run employing two different MLL-derived peptides. The present assay uses a 12 amino acid peptide labeled with fluorescein at its N-terminus. This peptide consists of the menin high affinity binding motif from MLL and is potently bound by menin. Another peptide with a mutated sequence, labeled with Texas Red, was used in parallel as a less stringent screen for inhibitors.
The Menin protein, the MLL-wild type (w.t.) derived peptide (N-terminal 12 amino acids), the MLL-derived peptide labeled with Texas Red and the MLL-w.t. peptide labeled with Fluorescein were kindly supplied by laboratory of Dr. Jolanta Grembecka, University of Virginia. All protein and peptide solutions were stored in single use aliquots at -80C. The Eu3+ Cyrptate-conjugated mouse monoclonal antibody anti-6 Histidine (Eu3+-AB) and the Streptavidin-XL665 conjugate (XL665) were purchased from Cisbio International (Bedford, MA). All antibody and XL665 conjugate solution stocks were stored in single use aliquots at -20C. The Buffer components for all assays were purchased from Sigma-Aldrich (St. Louis, MO) and Invitrogen (Carlsbad, CA). FP Assay Reagents: 1. FP reaction buffer: 50 mM Tris-HCl pH 7.5, 50 mM NaCl, 1mM DTT. Before use, 0.05% BSA is added. 2. Menin protein, MLL-w.t. labeled with fluorescein, MLL-mutant peptide labeled with texas red. Stored in singe use aliquots at -80C. 3. MLL-w.t. unlabeled peptide as positive control: 10 uM final in FP buffer. FP Assay Procedure: 1. Prepare Menin at 200 nM, MLL-w.t.-fluorescein at 25 nM, and MLL-mutant-texas red at 50 nM mixture in FP buffer. 2. Prepare Menin at 200 nM, MLL-w.t.-fluorescein at 25 nM, MLL-mutant-texas red at 50 nM, and 10 uM MLL-w.t. unlabeled mixture in FP buffer. 3. Prepare MLL-w.t.-fluorescein at 25 nM and MLL-mutant-texas red at 50 nM mixture in FP buffer. 3. Dispense 4 ul per well of reagent in step 1 in columns 2, 4 - 48 in a black 1536 well plate, dispense 4 ul per well of reagents from steps 2 and 3 in columns 1 and 3 respectively. Incubate plate at ambient for 15 minutes. 4. Transfer 23 nl per well of compound to plate and incubate at ambient for 1 hr. 5. Read fluorescence polarization for each label using the PerkinElmer Envision. Envision protocol for fluorescein: FITC FP Dual Enh Mirror, Excitation filter 480, Emission filter (1) P-pol 535, Emission filter (2) S-pol 535 Envision protocol for texas red: FP Dual Enh Mirror, Excitation filter 555, Emission filter (1) P-pol 632, Emission filter (2) S-pol 632
Potency is the fitted concentration of half-maximal effect; tags give direction and shape of the fitted curve or compound fluorescence and quenching.

SMILES	Potency
O=C(CSc1ccc(Cl)cc1)NC1=NN(c2ccccc2)C(=O)C1	inconclusive: 28.2 µM [quencher, side channel, partial curve]
CC(C)C/C(=N/O)c1c[nH]c2ccccc12	inconclusive: 22.4 µM [quencher, side channel, partial curve]
CCOc1cccc(CNCCc2c(C)[nH]c3ccc(OC(F)(F)F)cc23)c1O	inconclusive: 39.8 µM [inhibitor, single point]
O=c1cccc2n1CC1CC2CN(c2nc(N3CCCCC3)nc(N3CCCCC3)n2)C1 (centres undefined)	inconclusive: 10 µM [fluorescent, side channel, partial curve]
CCOC(=O)c1c(/N=C/c2c(O)n(-c3cccc(C)c3)c(=O)[nH]c2=O)sc2c1CCCC2	inconclusive: 25.1 µM [fluorescent, side channel, single point]
Nc1c(C(=O)NCc2ccco2)c2nc3ccccc3nc2n1Cc1ccccc1	inconclusive: 14.1 µM [quencher, side channel, single point]
CCn1cnc2c(Nc3cccc(Cl)c3)nc(N[C@@H]3CCCC[C@@H]3N)nc21	inconclusive: 2.82 µM [fluorescent, side channel, full curve, poor fit]
CCOC(=O)N(C)C(=O)CSP(=S)(OCC)OCC	inactive
O=C(CN1CC=C(c2ccccc2)CC1)NC(=O)NCc1ccco1	inactive
CCN(CC)c1nc(C)cc(OP(=S)(OC)OC)n1	inactive
CC(C)CCCC(C)C1CCC2C3CC(O)[C@@]4(O)CC(O)CC[C@@]4(C)C3CC[C@@]12C (some centres undefined)	inconclusive: 3.16 µM [inhibitor, partial curve]
O=P(Nc1ccccc1Cl)(c1ccccc1)c1nc2c(s1)CCCC2 (centres undefined)	inconclusive: 5.01 µM [inhibitor, full curve]
CC(=O)n1cc(C=C2C(=O)NC(=O)NC2=O)c2ccccc21	inconclusive: 39.8 µM [quencher, single point]
Cc1nn(C2CCOC(C)(C)C2)c2c1C(c1ccc3c(c1)OCO3)SCC(=O)N2 (centres undefined)	inconclusive: 11.2 µM [inhibitor, partial curve]
COc1ccc(CCNCc2ccc(C)s2)cc1OC	inactive
O=C(c1ccc(N2CCCCCC2)c([N+](=O)[O-])c1)N1CCC2(CC1)OCCO2	inconclusive: 25.1 µM [fluorescent, side channel, single point]
COc1ccc(C(=O)C2CN(C)CC2c2ccc(Cl)cc2)cc1 (centres undefined)	inactive
COc1cc(C)c(CN2CCN(c3ccccc3)CC2)cc1C	inconclusive: 8.91 µM [quencher, side channel, single point]
COc1ccccc1Cn1c(SCC(=O)C(C)(C)C)nc2cc(C(=O)N3CCC4(CC3)OCCO4)ccc2c1=O	inconclusive: 0.708 µM [fluorescent, side channel, full curve, poor fit]
Nc1ccc2c3c(cccc13)CC2	inconclusive: 25.1 µM [quencher, side channel, single point]
c1ccc2c(CCNCc3ccc4c(c3)OCO4)c[nH]c2c1	inconclusive: 17.8 µM [inhibitor, partial curve, poor fit]
COc1ccccc1CCNCc1cc2c(cc1[N+](=O)[O-])OCO2	inconclusive: 39.8 µM [inhibitor, single point]

SMILES	Potency
CC(C)CNC(=O)c1c(N)n(Cc2ccco2)c2nc3ccccc3nc12	inconclusive: 12.6 µM [quencher, side channel, partial curve]
O=P(N1CCCCC1)(N1CCCCC1)C(Cl)(Cl)Cl	inconclusive: 39.8 µM [fluorescent, side channel, single point]
CCC(=O)OC1CCC2C3CCc4cc(O)ccc4C3CC[C@]12C (some centres undefined)	inactive
COc1ccc(-c2oc(=O)n(C)c2-c2ccc(OC)cc2)cc1	inconclusive: 1.41 µM [inhibitor, full curve, poor fit]
O=c1oc2ccccc2c(O)c1C(c1ccc([N+](=O)[O-])cc1)c1c(O)c2ccccc2oc1=O	inconclusive: 7.08 µM [quencher, side channel, partial curve]
C#C[C@]1(O)CCC2C3CCC4=C/C(=N/OCC(=O)NC(C)C(=O)NC(CCSC)C(=O)O)CC[C@]4(C)C3CC[C@@]21C (some centres undefined)	active: 25.1 µM
COc1ccc(C(=O)C2CCCN(C3CSCCSC3)C2)c(C)c1 (centres undefined)	inconclusive: 15.8 µM [fluorescent, side channel, partial curve]
CCC(CO)NC(=O)[C@@H]1C=C2c3cccc4[nH]cc(c34)C[C@H]2N(C)C1 (some centres undefined)	inactive
CCOc1ccc(N2C(=O)/C(=C\c3cccs3)C(=O)NC2=S)cc1	inactive
CCc1ccc(N2NC(=O)/C(=C/C=C/c3ccco3)C2=O)cc1	inconclusive: 17.8 µM [quencher, side channel, partial curve]
C=CCN1C(=O)/C(=C/c2cccs2)C(=O)NC1=S	inconclusive: 39.8 µM [fluorescent, single point]
NC(Cc1ccc(Oc2cc(I)c(O)c(I)c2)c(I)c1)C(=O)O (centres undefined)	inconclusive: 28.2 µM [quencher, side channel, partial curve]
CCCCCCCCCC[N+](C)(C)CCCCCCCCCC	inactive
N/C(=N\N=C/c1ccc(-c2ccc(O)c(C(=O)O)c2)o1)N[N+](=O)[O-]	inconclusive: 25.1 µM [quencher, side channel, single point]
CCCOP(=O)(OCCC)C(Nc1ccc(C(C)C)cc1)c1ccc([N+](=O)[O-])cc1 (centres undefined)	inconclusive: 1.58 µM [inhibitor, full curve, poor fit]
CC12C=CC(=O)C=C1CCC1C2=CCC2(C)C1CC[C@@H]2C(=O)CN1CCN(c2cc(N3CCCC3)nc(N3CCCC3)n2)CC1 (some centres undefined)	inconclusive: 11.2 µM [inhibitor, partial curve]
CC(C)OC(=O)C(O)(c1ccc(Cl)cc1)c1ccc(Cl)cc1	inactive
O=[N+]([O-])c1ccc(NCc2ccc(Cl)cc2)c2ccncc12	inconclusive: 10 µM [quencher, side channel, partial curve]
O=c1[nH]c2ccccc2n1C1CCN(CCCC(c2ccc(F)cc2)c2ccc(F)cc2)CC1	inconclusive: 3.55 µM [fluorescent, side channel, full curve] and inconclusive: 2.82 µM [fluorescent, side channel, full curve, poor fit]
CC(=O)[O][Hg][c]1ccccc1	inactive
COc1ccc(C2NCc3ccc4c(c3-n3cccc32)OCO4)cc1OC (centres undefined)	inconclusive: 22.4 µM [fluorescent, side channel, single point]
Brc1ccc2c(c1)C(OC1CN3CCC1CC3)c1ccccc1CS2 (centres undefined)	inconclusive: 17.8 µM [fluorescent, side channel, partial curve]

SMILES	Potency
O=C(CCn1nc(-c2ccc(Cl)cc2)ccc1=O)N1CCC2(CC1)OCCO2	inactive
Cc1cc(/C=C2\C(=O)NC(=O)N(c3ccccc3F)C2=O)c(C)n1-c1cc(C(=O)O)cc(C(=O)O)c1	inactive
CCC(C)N1C(=O)/C(=C\c2cc3c4c(c2)CCCN4CCC3)C(=O)NC1=S (centres undefined)	inconclusive: 39.8 µM [inhibitor, single point]
CN1CCC(OC(=O)c2ccccc2)CC1	inconclusive: 10 µM [inhibitor, partial curve]
CC(C)c1ccc(N2C(=O)NC(=O)/C(=C/C=C/c3ccco3)C2=O)cc1	inactive
O=C(O)CCCC[C@@H]1SC[C@H]2NC(=O)N[C@@H]12	inactive
O=S1(=O)CC2(N3CCOCC3)CCCCC21 (centres undefined)	inactive
CC(C)(C)c1ccc(CSc2cnn(C(C)(C)C)c(=O)c2Cl)cc1	inconclusive: 10 µM [fluorescent, side channel, partial curve]
COc1cccc2c1cc([N+](=O)[O-])c1c(C(=O)O)cc3c(c12)OCO3	inconclusive: 4.47 µM [inhibitor, full curve, poor fit]
O=C(CN1C(=O)CN=C(c2ccccc2Cl)c2cc(Cl)ccc21)NCc1ccco1	inconclusive: 11.2 µM [inhibitor, partial curve]
CCN(CCNc1ccc([N+](=O)[O-])c2cccnc12)S(=O)(=O)c1ccc(Cl)cc1	inconclusive: 8.91 µM [quencher, side channel, full curve, poor fit]
COCCN(C(=O)CCl)c1c(C)cccc1C	inactive
CN(C)C(=O)Oc1ccc2c(=O)c(Oc3ccccc3Br)coc2c1	inconclusive: 15.8 µM [inhibitor, partial curve]
COc1cc2[nH]c(=O)n(Cc3ccc(C(=O)NC4CCCC4)cc3)c(=O)c2cc1OC	inconclusive: 25.1 µM [fluorescent, side channel, partial curve]
COc1ccc2[nH]c(C)c(CCNCc3cc(OC)c(OC)c(OC)c3)c2c1	inactive
O=C(N/N=C1/CN2CCC1CC2)c1cc2ccccc2cc1O	inconclusive: 15.8 µM [quencher, side channel, partial curve]
O=C1Nc2ccc(Cl)cc2C(c2ccccc2)=NC1O (centres undefined)	inconclusive: 39.8 µM [inhibitor, single point]
CCCNC(=O)c1c(N)n(CC2CCCO2)c2nc3ccccc3nc12 (centres undefined)	inactive
CNC(=O)OCCc1nccn1C	inactive
CCOC(=O)C1(CCOc2ccccc2)CCN(Cc2cnc(SC)nc2)CC1	inconclusive: 39.8 µM [inhibitor, single point]
